# Measured values taken from paper PMC4336329 (PLoS ONE, 2015).
# Hit rate of the full screen: of about 310,000 compounds, about 14,000 (4.5%) showed an effect of 50% or more. Effects have a minus sign here. This is one part of the list.
# Biological target: human ether-à-go-go-related gene (hERG) potassium channel (human, UniProt Q12809)
# Assay: primary screen, population patch clamp on CHO cells stably expressing hERG
# 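Also: peak tail current of the secondary pulse compared with the same well before compound.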
# Sequence of human ether-à-go-go-related gene (hERG) potassium channel (Q12809 whole entry, looked up): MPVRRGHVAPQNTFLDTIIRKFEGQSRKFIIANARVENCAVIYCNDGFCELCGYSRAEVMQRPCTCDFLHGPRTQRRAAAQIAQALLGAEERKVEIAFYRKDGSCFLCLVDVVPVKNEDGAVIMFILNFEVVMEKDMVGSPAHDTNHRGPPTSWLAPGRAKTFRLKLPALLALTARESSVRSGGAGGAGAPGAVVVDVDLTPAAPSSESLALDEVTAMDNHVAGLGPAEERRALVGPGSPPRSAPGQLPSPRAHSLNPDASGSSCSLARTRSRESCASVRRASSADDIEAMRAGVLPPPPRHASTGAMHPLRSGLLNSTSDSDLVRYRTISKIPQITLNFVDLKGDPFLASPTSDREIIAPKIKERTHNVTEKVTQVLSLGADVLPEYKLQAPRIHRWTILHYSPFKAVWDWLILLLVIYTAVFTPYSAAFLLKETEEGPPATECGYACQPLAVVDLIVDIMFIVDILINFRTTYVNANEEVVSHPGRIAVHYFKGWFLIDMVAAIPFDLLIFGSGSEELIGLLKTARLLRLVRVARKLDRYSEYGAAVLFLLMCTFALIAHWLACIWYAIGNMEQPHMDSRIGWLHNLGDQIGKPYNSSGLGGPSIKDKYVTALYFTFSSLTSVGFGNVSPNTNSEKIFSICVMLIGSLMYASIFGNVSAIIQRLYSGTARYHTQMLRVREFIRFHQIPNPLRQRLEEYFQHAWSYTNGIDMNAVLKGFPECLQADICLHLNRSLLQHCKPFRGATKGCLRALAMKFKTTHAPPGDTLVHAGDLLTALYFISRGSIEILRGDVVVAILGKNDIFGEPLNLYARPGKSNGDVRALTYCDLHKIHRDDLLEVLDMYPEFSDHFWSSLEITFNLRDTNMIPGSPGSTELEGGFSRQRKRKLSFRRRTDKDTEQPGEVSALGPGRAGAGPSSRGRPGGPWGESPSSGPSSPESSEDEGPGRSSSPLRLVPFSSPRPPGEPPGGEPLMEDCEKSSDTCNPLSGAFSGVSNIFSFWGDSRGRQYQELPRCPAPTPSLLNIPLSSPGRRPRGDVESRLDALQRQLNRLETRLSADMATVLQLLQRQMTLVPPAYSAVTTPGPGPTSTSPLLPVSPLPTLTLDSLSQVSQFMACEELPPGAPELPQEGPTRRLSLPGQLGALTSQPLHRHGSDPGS
row,Structure (SMILES),"hERG current change (%, negative = inhibition) at 10uM [%]"
1,C=CCN1C(=O)C2(OCCCO2)c2ccccc21,4.84
2,COc1ccc(CN2CCN(C3CCC3)CC2CCO)cc1C (centres unmarked),8.14
3,COc1ccccc1NS(=O)(=O)c1cc(NC(=O)C(C)C)ccc1N1CCCCC1,4.42
4,O=C(CNC(=O)c1ccc2c(c1)OCO2)N/N=C(Br)/C=C/c1ccccc1,-18.3
5,COc1ccc(OC)c(C2C(C(=O)Nc3ccc(F)cc3)=C(C)Nc3nc(CCCO)nn32)c1 (centres unmarked),1.03
6,O=C(CCn1c(=S)oc2ccccc21)NC1CCCCC1,11.5
7,Cc1cc(C)c(S(C)(=O)=O)c(S(=O)(=O)c2ccc(Cl)cc2)n1,-12.3
8,COc1ccc(Cl)cc1NC(=O)C/C(C)=N/NC(=O)COc1ccc(C)cc1,-29.9
9,COc1ccccc1CC(=O)Nc1ccc2c(C)cc(=O)oc2c1,-0.223
10,COc1ccccc1-n1c2nc3ccccc3nc2c2c(=O)n(-c3cc(C)cc(C)c3)cnc21,-14.8
11,COc1ccc(N2CCN(C(=O)CCc3nnc4ccc(N5CCCC5)nn34)CC2)cc1,-7.68
12,COCCn1c(CN2CCc3ccccc3C2)nc2c1c(=O)n(C)c(=O)n2C,-11.5
13,COc1ccc2oc(C(=O)Nc3ccccc3N3CCOCC3)c(C)c2c1,11.2
14,NC(=O)CN1CCN(c2cccc(Cl)c2)CC1,0.166
15,COc1ccc(C(=O)OCC(=O)N2CCCCCC2)cc1S(=O)(=O)N1CCOCC1,-11.6
16,CCOC(=O)c1c(NC(=O)CSc2n[nH]c(CNc3ccccc3)n2)sc(C)c1C,2.35
17,Cc1ccc(NC(=O)Cn2nnc(C(=O)Nc3ccc(C)c(C)c3)c2N)cc1,-6.32
18,O=C(c1cccc(F)c1)N1CCN(C(=O)c2cc3ncc(Br)cn3n2)CC1,9.84
19,O=C(Nc1ccccc1)C1CC(=O)N(C2CCCCC2)C1 (centres unmarked),3.91

row,Structure (SMILES),"hERG current change (%, negative = inhibition) at 10uM [%]"
1,Cn1c(-c2ccccc2)cccc1=O,-0.353
2,COC(=O)c1ccc(COC(=O)c2c(C)nn(Cc3ccccc3Cl)c2Cl)o1,10.9
3,CC(C)Cc1nc2sc3c(c2c(=O)n1N)CC(C(C)C)OC3 (centres unmarked),9.24
4,O=C(NCC1CCCO1)/C(=C\c1ccc(Cl)cc1)NC(=O)c1ccccc1 (centres unmarked),-12.1
5,Cc1cc(NS(=O)(=O)c2ccc3c(c2)OCCO3)no1,1.49
6,COc1ccc([N+](=O)[O-])cc1N(CC1CO1)S(=O)(=O)c1ccc(C)cc1 (centres unmarked),4.42
7,Cc1nc(Cl)cc(N/N=C/c2ccc(O)cc2O)n1,-2.09
8,COc1ccc2nc(Cl)cc(Cl)c2c1,20.9
9,CCS(=O)(=O)CCSc1nc(C)cc(C)n1,6.45
10,Cc1ccc(N2C(=O)CCC(C(=O)O)C2c2cccs2)cc1 (centres unmarked),34
11,CCOC(=O)N1CCC(N2CCN(Cc3ccccc3)C(CCO)C2)CC1 (centres unmarked),-9.9
12,O=[N+]([O-])c1cc(S(=O)(=O)N2CCCC2)ccc1N/N=C/c1ccncc1,-17.2
13,CCCn1c2ccccc2c2nnc(SCC(=O)Nc3cc(C)on3)nc21,-0.11
14,Cc1c(C(=O)OCC(=O)N2CCCCC2C)oc2ccccc12 (centres unmarked),14.6
15,O=C(NCCCc1nc2ccccc2[nH]1)c1cccs1,-5.12
16,COc1ccc(NC(C)=O)cc1NC(=O)c1ccc2ccccc2c1,-25.5
17,O=C1CSC(c2cccc(F)c2)N1c1ccccc1 (centres unmarked),12.8
18,CN(C)CCNC(=O)COc1ccc(C23CC4CC(CC(C4)C2)C3)cc1.Cl,-18.9
19,Cc1cc(C)n(CC(O)COc2ccccc2C)n1 (centres unmarked),-4.84

row,Structure (SMILES),"hERG current change (%, negative = inhibition) at 10uM [%]"
1,CCOC(=O)c1cc(=O)n2[nH]c(-c3ccc(C)cc3)cc2n1,12.1
2,CCN(CC)C(=O)N1CCc2ccccc2C1CN1C(=O)c2ccccc2C1=O (centres unmarked),-15.3
3,Cc1ccc(-c2nc3cccnc3s2)cc1NS(=O)(=O)c1ccc2c(c1)CCCC2,5.81
4,COc1ccc(Br)cc1/C=C/C(=O)NC(=S)Nc1ccc(Cl)c(C(=O)O)c1,22.8
5,CSc1nc(C)c(CCOC(=O)c2cccc(Cl)c2)c(=O)[nH]1,2.68
6,Cc1cc(C)n(CCc2nc(-c3ccc(C)o3)cs2)n1,0.436
7,COc1ccccc1N1CCN(C(=O)c2cc3cc(F)ccc3[nH]2)CC1,15.8
8,CN(C)c1ccc(-c2noc(C3CCN(C(=O)Nc4ccc(Cl)cc4)CC3)n2)cc1,-0.329
9,O=C(NCCCN1CCCC1=O)c1cc(=O)c2ccccc2o1,5.23
10,O=C(COC(=O)c1ccccc1C(=O)c1ccccc1)NCCc1ccc(Cl)cc1Cl,-31.9
11,O=C(COC(=O)C1CC2CCCC(C1)C2=O)Nc1ccc(Cl)cn1 (centres unmarked),-7.38
12,CC#CC(=O)N1CCC(CCc2ccccc2)(C(=O)OCC)CC1,-61.4
13,Cc1ccc(S(=O)(=O)N(CC(=O)N2CCc3ccccc3C2)c2ccc(Cl)c(Cl)c2)cc1,-14.6
14,COc1ccc(OC)c(-c2cc(C(=O)Nc3c(C)nn(Cc4ccccc4C)c3C)no2)c1,0.353
15,COc1ccc(C(=O)Nc2ccc3c(c2)nc(CCNC(=O)c2ccco2)n3C)cc1,-5.16
16,CC(C)CCNC(=O)c1csc2c1CCCCC2,2.04
17,O=C(CN(C(=O)CNS(=O)(=O)c1ccc(F)cc1)c1ccccc1F)NCc1ccco1,-20
18,COC(=O)CSc1nc2c(c(=O)n(C)c(=O)n2C)n1CCCc1ccccc1,-36.3
